For 1 compound, GI50 and TGI results are on record in PubChem BioAssay (NCI).

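Tested at 5 concentrations; 48 h exposure; 96-well plates; endpoints linearly interpolated, else capped at highest concentration. The concentration for 50% growth inhibition is given as GI50. TGI denotes the concentration required for complete inhibition of growth.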

In this assay the test system is NCI-H322M lung. Briefly: DTP human tumour cell line panel, 48 h.

With `Cc1ccc(NC(=O)c2ccc(CN3CCN(C)CC3)c(I)c2)cc1Oc1ccc(-c2[nH]nc3ncnc(N)c23)cc1`, the GI50 was 1910 nM and the TGI is 3390 nM.
